# Inconclusive means that the source gave no clear call. Such entries were picked first, then a sample of the others. For part of these data: Potencies of inconclusive entries are doubtful fits and often do not repeat. For part of these data: “Side channel” marks fits to a control or component signal instead of the main read-out. Active and inactive are the calls of the source. Unless noted, calls come from the whole dose curve; as a rule, active = well fitted curve in the direction sought with a large enough effect; inconclusive = small, poorly fitted or top-dose-only effect, or another doubt; inactive = no such curve, though single readings can be large; an effect the other way counts as inactive or inconclusive.
# Columns and labels:
# [1] = AP1 Signaling Pathway (AID 357; active = well fitted curve in either direction with a large enough effect, not every such curve was filed as active; inconclusive = small, poorly fitted or top-dose-only effect, or another doubt;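 note: ME-180 reporter cells stimulated with EGF at its EC50 level; top concentration of the series differs between compounds; % is set by controls: 0 for no effect and ±100 for the full control effect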); conditions: ME-180 AP-1-bla reporter, EGF-induced, beta-lactamase ratio, 5 h; at 7.69 µM (top of the series) unless noted
# Summary of the method: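 First, ME-180 AP-1-bla cells were cultured overnight at 37 °C in low-serum Opti-MEM. Next, titrated compounds with EC50 EGF were incubated 5 hours. Finally, CCF4 was added for 2.5 hours and the 460/530 nm ratio recorded.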
# [2] = molecular target: Cytochrome P450 1A2 (Homo sapiens) (UniProt P05177); test: p450-cyp1a2 (AID 410; calls by dose curve; note: potency is the fitted concentration of half-maximal effect)
# Summary of the method: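 O-Demethylation of luciferin 6' methyl ether by human CYP1A2 is monitored as luciferase luminescence. Substrate sits at Km (100uM); enzyme is 20nM. Values are scaled to 57 uM furafylline as maximal inhibition.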
# [3] = NFAT Signaling Pathway (AID 444; active = well fitted curve in either direction with a large enough effect, not every such curve was filed as active; inconclusive = small, poorly fitted or top-dose-only effect, or another doubt;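 note: carbachol stimulus at about its EC50 of 1 µM final; % is set by controls: 0 for no effect and ±100 for the full control effect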); conditions: Jurkat NFAT-bla M1, carbachol, beta-lactamase ratio, 5 h; at 7.69 µM (top of the series) unless noted
# Summary of the method: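 Read-out: CCF4 FRET ratio (460 nm/530 nm) after 1 h RT dye loading, used for %activity and AC50 from titration series. Cells: Jurkat NFAT-β-lactamase/M1 line, treated with compound plus 1 uM carbachol for 5 h, 37 °C.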
# [4] = Stat Signaling Pathway (AID 446; active = well fitted curve in either direction with a large enough effect, not every such curve was filed as active; inconclusive = small, poorly fitted or top-dose-only effect, or another doubt;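 note: ME-180 cervical cancer cells given 40 pM IL-6 alongside compound; SIE-controlled beta-lactamase reporter measured as 460/530 nm FRET emission ratio; top concentration of the series differs between compounds; % is set by controls: 0 for no effect and ±100 for the full control effect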); conditions: ME-180 (cervical carcinoma) SIE beta-lactamase reporter, IL-6 stimulated, 5 h; at 7.69 µM (top of the series) unless noted
# Summary of the method: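 Overnight-plated ME-180 cells bearing a STAT Inducible Element beta-lactamase reporter; 5 h co-exposure to compound and 40 pM IL-6; values normalized to 300 pM IL-6 and 125 nM JAK inhibitor controls.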
# [5] = molecular target: Mitogen-activated protein kinase 10 (Mus musculus) (UniProt Q61831); test: JNK3 AlphaScreen Assay (AID 530; active = well fitted curve in either direction with a large enough effect, not every such curve was filed as active; inconclusive = small, poorly fitted or top-dose-only effect, or another doubt;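 note: kinase came from lysate of stimulated human HepG2 cells; signal reports phosphorylation of biotinylated GST-cJun 1-79 at Ser73 with 10 µM ATP; potency is the fitted concentration of half-maximal effect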); conditions: JNK3 lysate, c-Jun phosphorylation; activity change, negative = inhibition: at 57.1 µM (top of the series)
# Summary of the method: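 qHTS titrations with 15 min compound pre-incubation before adding ATP (10 uM final). Read-out: AlphaScreen of Ser73-phosphorylated biotin-GST-cJun using HepG2 lysate JNK3 activated by IL-1β and TNFα.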
# [6] = molecular target: 3',5'-cyclic-AMP phosphodiesterase 4B (Homo sapiens) (UniProt Q07343); test: qHTS Assay for Inhibitors of PDE-IV (AID 607; active = well fitted activation curve with a large enough effect in the main read-out, with a control signal flat, not every such curve was filed as active; inconclusive = small, poorly fitted or top-dose-only effect, or effect the other way, or a change in a side signal; note: potency is the fitted concentration of half-maximal effect); conditions: HEK293 ACTOne CNG channel cells, membrane potential fluorescence; activation (PDE inhibition): at 22.9 µM (top of the series)
# Summary of the method: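 Live HEK293 cells with a modified cyclic nucleotide-gated (CNG) channel report intracellular cAMP via membrane-potential dye fluorescence (ex 535/em 590 nm). Endogenous PDE-IV was targeted. Compounds were tested at up to 22.9 uM final; RO 20-1724 100 uM served as control.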
# [7] = qHTS Assay for Identification of Small Molecule Antagonists for NFkB Signaling Pathway (AID 895; active = well fitted inhibition curve with a large enough effect in the signal ratio, with a control signal flat, not every such curve was filed as active; inconclusive = small, poorly fitted or top-dose-only effect, or effect the other way, or a change in a side signal; the % refers to the signal ratio; note: potency is the fitted concentration of half-maximal effect); conditions: NFkB beta-lactamase reporter cells, FRET ratio 460/530, stimulated with 10 pM TNF alpha; activity change, negative = inhibition: at 38.3 µM (top of the series)
# Summary of the method: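 Beta-lactamase reporter read-out (460 and 530 nm emission ratio, 405 nm excitation, 2 hrs substrate loading RT) after 5 hr stimulation with 10 pM TNF alpha in compound-treated NFkB-bla ME-180 cells in low-serum medium.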
# [8] = qHTS Assay for Identification of Small Molecule Agonists for Thrombopoietin (TPO) Signaling Pathway (AID 917); note: % is set by controls: 0 for no effect and ±100 for the full control effect
# Summary of the method: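 Stimulation at the TPO EC50 (26 pM final) was used to detect activators. Ba/F3 mouse cells bearing human TPO receptor and a luciferase reporter under the Glycoprotein IIb promoter were exposed to compounds for 24 hrs at 37 C.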
# [9] = qHTS Assay for Identification of Small Molecule Antagonists for Thrombopoietin (TPO) Signaling Pathway (AID 918); conditions: TPO-dependent cell signaling reporter, antagonist mode; activity change, negative = inhibition: at 38.5 µM (top of the series); note: nearly all actives have a fitted effect of over 60% in size
# Summary of the method: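 Inhibitors of TPO signaling are sought by stimulating IL-3-starved murine Ba/F3 cells (human TPO receptor, Glycoprotein IIb-driven luciferase) with TPO at its EC50 of 26 pM alongside compound. After 24 hrs at 37 C, reporter luminescence is measured.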
# [10] = qHTS for differential inhibitors of proliferation of Plasmodium falciparum line GB4 (AID 1816); conditions: Potency: Plasmodium falciparum GB4 proliferation inhibition;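 note: potency is the fitted concentration of half-maximal effect; parasite growth measured after 72 h incubation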
# [11] = qHTS for differential inhibitors of proliferation of Plasmodium falciparum line 3D7 (AID 1876); note: potency is the fitted concentration of half-maximal effect
# [12] = qHTS for differential inhibitors of proliferation of Plasmodium falciparum line D10 (AID 1877);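 note: potency is the fitted concentration of half-maximal effect; parasites grown with compound for 72 h before DNA staining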
# [13] = qHTS for differential inhibitors of proliferation of Plasmodium falciparum line HB3 (AID 1886); conditions: Potency: Plasmodium falciparum HB3 proliferation inhibition;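 note: parasites grown with compound for 72 h before SYBR Green readout; plate controls were vehicle for no effect and reference inhibitor for full effect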
# [14] = molecular target: Ferritin light chain (Equus caballus) (UniProt P02791); test: qHTS Validation Assay for Identification of Novel General Anesthetics (AID 2323); note: potency is the fitted concentration of half-maximal effect
# Summary of the method: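 Horse-spleen apoferritin (10 uM) in PBS with 50% saturated 1-aminoanthracene; compounds pin-transferred, 10 min at room temperature. Fluorescence read at 380/535 nm, normalized to free 1-AMA and 1-AMA/apoferritin values; four-parameter Hill fit.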
# [15] = molecular target: RecQ-like DNA helicase BLM (Homo sapiens) (UniProt P54132); test: qHTS Validation Assay for Inhibitors of Bloom's syndrome helicase (BLM) (AID 2364); note: potency is the fitted concentration of half-maximal effect
# Summary of the method: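 Forked 20-bp duplex substrate (200 nM, TAMRA/BHQ-2) plus 2 mM ATP added after 15 min compound preincubation with 50 nM enzyme, pH 8.0, poly(dI-dC) 2.5 ug/ml. Strand separation followed by fluorescence (525/598 nm) over 2 h, normalized to enzyme-free and DMSO controls.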
# Tags give direction and shape of the fitted curve or compound fluorescence and quenching.
# Sequence of UniProt P54132 (P54132 whole entry, looked up): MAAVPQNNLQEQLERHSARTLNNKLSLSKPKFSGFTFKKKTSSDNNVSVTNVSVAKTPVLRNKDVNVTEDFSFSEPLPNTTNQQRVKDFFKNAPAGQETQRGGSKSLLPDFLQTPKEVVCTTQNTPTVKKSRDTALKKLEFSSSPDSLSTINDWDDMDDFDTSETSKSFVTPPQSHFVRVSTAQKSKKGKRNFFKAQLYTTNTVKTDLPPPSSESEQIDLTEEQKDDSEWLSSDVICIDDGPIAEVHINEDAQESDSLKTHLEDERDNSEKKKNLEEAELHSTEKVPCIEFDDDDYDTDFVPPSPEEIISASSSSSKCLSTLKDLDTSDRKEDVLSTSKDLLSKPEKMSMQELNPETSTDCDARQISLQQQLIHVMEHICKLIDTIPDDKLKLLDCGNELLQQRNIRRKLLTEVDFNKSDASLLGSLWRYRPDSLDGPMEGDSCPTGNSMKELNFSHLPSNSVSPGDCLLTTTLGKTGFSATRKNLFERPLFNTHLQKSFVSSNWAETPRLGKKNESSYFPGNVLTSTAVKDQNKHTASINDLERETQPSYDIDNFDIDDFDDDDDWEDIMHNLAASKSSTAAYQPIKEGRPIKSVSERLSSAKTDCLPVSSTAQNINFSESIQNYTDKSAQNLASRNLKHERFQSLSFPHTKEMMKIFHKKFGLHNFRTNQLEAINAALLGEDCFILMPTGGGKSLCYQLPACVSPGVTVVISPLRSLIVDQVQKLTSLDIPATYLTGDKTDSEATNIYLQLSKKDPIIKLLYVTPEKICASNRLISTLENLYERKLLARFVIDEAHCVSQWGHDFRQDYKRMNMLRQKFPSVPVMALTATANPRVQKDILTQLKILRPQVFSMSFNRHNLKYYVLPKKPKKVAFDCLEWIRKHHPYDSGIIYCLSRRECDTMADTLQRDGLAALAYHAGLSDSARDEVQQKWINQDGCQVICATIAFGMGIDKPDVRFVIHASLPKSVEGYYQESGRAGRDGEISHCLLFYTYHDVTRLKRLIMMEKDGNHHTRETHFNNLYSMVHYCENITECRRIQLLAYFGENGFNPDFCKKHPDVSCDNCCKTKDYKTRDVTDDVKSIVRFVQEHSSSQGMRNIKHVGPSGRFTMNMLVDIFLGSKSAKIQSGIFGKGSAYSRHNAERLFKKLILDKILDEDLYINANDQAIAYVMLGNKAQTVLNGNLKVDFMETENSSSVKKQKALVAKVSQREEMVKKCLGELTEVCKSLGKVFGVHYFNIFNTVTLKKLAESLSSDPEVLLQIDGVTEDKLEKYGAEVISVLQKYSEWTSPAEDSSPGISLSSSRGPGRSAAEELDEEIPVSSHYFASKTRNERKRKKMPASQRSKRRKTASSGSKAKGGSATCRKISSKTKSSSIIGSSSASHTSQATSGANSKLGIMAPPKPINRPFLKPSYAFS
# Sequence of UniProt P02791 (P02791 whole entry, looked up): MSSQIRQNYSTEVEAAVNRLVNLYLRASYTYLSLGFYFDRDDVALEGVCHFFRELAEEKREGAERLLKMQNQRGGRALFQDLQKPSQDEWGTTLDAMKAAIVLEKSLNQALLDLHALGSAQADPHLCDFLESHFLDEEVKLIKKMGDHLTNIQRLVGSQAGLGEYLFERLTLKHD
# Sequence of UniProt P05177 (P05177 whole entry, looked up): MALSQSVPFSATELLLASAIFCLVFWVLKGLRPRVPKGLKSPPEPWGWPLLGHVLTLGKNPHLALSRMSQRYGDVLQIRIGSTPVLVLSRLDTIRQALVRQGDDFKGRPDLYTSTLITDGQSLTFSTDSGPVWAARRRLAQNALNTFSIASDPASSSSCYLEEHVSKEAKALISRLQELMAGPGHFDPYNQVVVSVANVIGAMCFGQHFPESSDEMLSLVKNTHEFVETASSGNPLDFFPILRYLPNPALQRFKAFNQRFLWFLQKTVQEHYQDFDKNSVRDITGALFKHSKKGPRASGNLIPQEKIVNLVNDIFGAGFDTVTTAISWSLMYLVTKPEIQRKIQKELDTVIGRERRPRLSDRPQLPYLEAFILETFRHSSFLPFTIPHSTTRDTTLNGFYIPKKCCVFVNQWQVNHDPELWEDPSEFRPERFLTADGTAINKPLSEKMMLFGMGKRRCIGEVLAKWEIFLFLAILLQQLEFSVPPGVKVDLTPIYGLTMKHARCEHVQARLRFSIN
# Sequence of UniProt Q07343 (Q07343 whole entry, looked up): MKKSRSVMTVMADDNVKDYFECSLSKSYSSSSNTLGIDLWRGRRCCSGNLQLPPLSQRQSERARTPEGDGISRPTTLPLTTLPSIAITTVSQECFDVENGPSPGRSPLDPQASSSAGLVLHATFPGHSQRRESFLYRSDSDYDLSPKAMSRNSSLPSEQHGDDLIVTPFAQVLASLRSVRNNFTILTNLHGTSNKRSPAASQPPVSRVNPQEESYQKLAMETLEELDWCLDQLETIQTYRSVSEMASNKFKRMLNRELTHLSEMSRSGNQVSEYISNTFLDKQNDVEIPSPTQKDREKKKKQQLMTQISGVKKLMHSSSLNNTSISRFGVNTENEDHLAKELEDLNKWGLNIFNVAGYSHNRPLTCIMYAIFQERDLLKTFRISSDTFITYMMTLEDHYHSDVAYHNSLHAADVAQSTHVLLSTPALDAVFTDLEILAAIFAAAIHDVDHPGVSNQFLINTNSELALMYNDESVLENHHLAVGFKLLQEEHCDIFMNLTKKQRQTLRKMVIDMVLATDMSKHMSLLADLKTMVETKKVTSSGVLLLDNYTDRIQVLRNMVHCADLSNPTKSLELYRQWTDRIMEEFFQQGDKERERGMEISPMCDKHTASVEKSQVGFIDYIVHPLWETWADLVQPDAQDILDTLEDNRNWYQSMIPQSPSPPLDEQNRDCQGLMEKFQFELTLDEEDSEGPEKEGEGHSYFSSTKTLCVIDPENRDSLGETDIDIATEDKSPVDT
structure (smiles),measurement,setting,value
CN(CCOc1ccc(C[C@H](Nc2ccccc2C(=O)c2ccccc2)C(=O)O)cc1)c1ccccn1,"activity change, negative = inhibition",[1],inconclusive: -64.5% [inhibitor] [at 38 µM]
same,Potency,[2],inconclusive: 39.8 µM [decreasing]
same,"activity change, negative = inhibition",[3],inconclusive: -75.8% [inhibitor] [at 38 µM]
same,"activity, negative = inhibition",[4],inconclusive: -18.7% [inhibitor] [at 38 µM]
same,Potency,[5],"inconclusive: 7.94 µM [inhibitor, full curve, poor fit]"
same,Potency,[6],"inconclusive: 10 µM [rising, partial curve]"
same,Potency,[7],"inconclusive: 12.6 µM [side channel, rising, single point]"
same,Potency,[8],inactive
same,"activity change, negative = inhibition",[9],inconclusive: -15.5% [phenotype inactive]
same,Potency,[10],"inconclusive: 8.91 µM [inhibitor, partial curve]"
same,Potency,[11],"inconclusive: 12.6 µM [inhibitor, single point]"
same,Potency,[12],"inconclusive: 12.6 µM [inhibitor, partial curve, poor fit]"
same,Potency,[13],inactive
same,Potency,[14],"inconclusive: 14.1 µM [inhibitor, partial curve]"
same,Potency,[15],"inconclusive: 447 nM [inhibitor, full curve, poor fit]"
